Data on 61 compounds can be found in PubChem BioAssay AID1508642 (National Center for Advancing Translational Sciences (NCATS), 2021).

In all, about 43,000 compounds went through this assay and about 200 (0.47%) were called active. Another 12% or so got no clear call; they are omitted. The call rests on the fitted dose curve; in most records, active means well fitted cell-killing curve with a large enough effect; inconclusive means small, poorly fitted or top-dose-only effect, or effect the other way; inactive means flat fitted curve, though single readings scatter. This is one part of the list.
On the % scale 0 is the no-effect control and ±100 the full control effect.

A short description of the assay: Cell viability qHTS assay in S16 Pmp22-F2sN cells. Further: nearly all actives have a fitted effect of over 65% in size. The conditions noted are these: S16 Pmp22-F2sN Schwann cells viability, CellTiter-Glo, 24 h; series mostly up to 57.5 µM; activity change, negative = cytotoxicity: at the top concentration. The method, boiled down: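 S16 Pmp22-F2sN Schwann cells (500-1,000/well) in phenol-red-free DMEM with 10% FBS received 23 nL compound by pin tool for 24 h at 37 °C. Viability was then read as CellTiter-Glo luminescence after 15 min at room temperature.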
On to `COc1ccc(Cl)cc1NS(=O)(=O)c1c(C)nc2scc(C)n2c1=O`, for which the “activity change, negative = cytotoxicity” value is inactive: 1.88%.

Consider `Cc1ccc(CNC(=O)c2c[nH]c3ccc(S(=O)(=O)Nc4ccc(C(C)C)cc4)cc3c2=O)cc1`, for which the “activity change, negative = cytotoxicity” value is inactive: -6.04%.

As for `COc1cc(NC(=O)C(NC(=O)C2CCC(C)CC2)C(C)C)cc(OC)c1OC` (stereo unspecified), the “activity change, negative = cytotoxicity” value was inactive: 8.97%.

Take `COc1cccc(CSc2nc3cc(OC)c(OC)cc3c3nc(CCn4nc(C)cc4C)nn23)c1`: the “activity change, negative = cytotoxicity” value is inactive: 6.06%.

For the compound `CCOc1ccc2nc(N(Cc3cccnc3)C(=O)c3ccc4c(c3)OCCO4)sc2c1`, the “activity change, negative = cytotoxicity” value was inactive: 17.3%.

With `O=C(NC1(C(F)(F)F)NC(=O)N(CCc2ccccc2)C1=O)c1ccccc1F` (stereo unspecified), the “activity change, negative = cytotoxicity” value was inactive: 7.86%.

Turning to `CCN(Cc1ccccc1)C(=O)Nc1ccc2c(c1)N(C)C(=O)c1ccccc1S2`, the “activity change, negative = cytotoxicity” value was inactive: -28.4%.

Turning to `COc1ccc(C)cc1NC(=O)CN1C(=O)CCc2cc(S(=O)(=O)N3CCOCC3)ccc21`, the “activity change, negative = cytotoxicity” value is inactive: 16.3%.

With `Cc1ccc(C(c2sc3nc(-c4ccco4)nn3c2O)N2CCCCC2)cc1` (stereo unspecified), the “activity change, negative = cytotoxicity” value is inactive: 3.58%.

`CC(=O)c1ccc(NC(=O)CSc2nc(-c3ccccc3F)nc3c2c(=O)n(C)c(=O)n3C)cc1`: the “activity change, negative = cytotoxicity” value was inactive: 3.18%.

Take `C=Cc1ccc(Cn2c(=O)n(-c3ccccc3C)c(=O)c3c4c(sc32)CN(C(C)=O)CC4)cc1`: the “activity change, negative = cytotoxicity” value was inactive: 0.111%.

For the compound `CCc1nn(CC(=O)Nc2c(C)cc(C)cc2C)c(=O)c2cc3sccc3n12`, the “activity change, negative = cytotoxicity” value was inactive: 2.35%.

Take `Cc1ccc(N(C)S(=O)(=O)c2ccc3[nH]cc(C(=O)O)c(=O)c3c2)cc1C`: the “activity change, negative = cytotoxicity” value is inactive: 3.1%.

`Cc1ccc(NC(=O)C2CCN(c3nc4ccccc4[nH]3)CC2)cc1Cl`: the “activity change, negative = cytotoxicity” value is inactive: -11.6%.

With `CC1Cc2cc(S(=O)(=O)NCc3ccc(F)cc3)ccc2N1C(=O)C1CCC1` (stereo unspecified), the “activity change, negative = cytotoxicity” value was inactive: -3.03%.

As for `CCOC(=O)c1c(-c2ccc(C)cc2)csc1NC(=O)c1cc(=O)c2cc(C)c(C)cc2o1`, the “activity change, negative = cytotoxicity” value was inactive: -1.42%.

For `O=C(Cn1cc(SCc2cccc(C(F)(F)F)c2)c2ccccc21)N1CCCCCC1`, the “activity change, negative = cytotoxicity” value is inactive: -19%.

Take `COc1cccc2cc(-c3nc(-c4cccs4)no3)c(=O)oc12`: the “activity change, negative = cytotoxicity” value is inactive: 4.37%.

Regarding `CN1C(=O)C2CCCCN2c2ccc(C(=O)NCc3ccccc3Br)cc21` (stereo unspecified), the “activity change, negative = cytotoxicity” value was inactive: 6.64%.

Take `COc1cc(NC(=O)CCc2c(C)nc3c(c(C)nn3-c3ccccc3)c2C)cc(OC)c1OC`: the “activity change, negative = cytotoxicity” value was inactive: 5.68%.

For the compound `COc1ccccc1CNC(=O)Nc1ccc2c(c1)N(C)C(=O)c1ccccc1S2`, the “activity change, negative = cytotoxicity” value was inactive: -11.1%.

With `O=C(CSc1nc2c([nH]c3ccccc32)c(=O)n1-c1ccc(F)cc1)N1CCCCCC1`, the “activity change, negative = cytotoxicity” value is inactive: 10.4%.

On to `COc1ccc(Br)cc1CNC(=O)CCC(=O)N1CCSc2ccccc21`, for which the “activity change, negative = cytotoxicity” value is inactive: -4.96%.

On to `Clc1cccc(-c2noc3ncnc(NC4CCCCC4)c23)c1`, for which the “activity change, negative = cytotoxicity” value was inactive: -18.7%.

As for `O=C(Nc1ccc(Br)cc1)c1ccc(Br)c(S(=O)(=O)NCc2ccccc2)c1`, the “activity change, negative = cytotoxicity” value was inactive: -5.74%.

With `CCOc1ccc(CNC(=O)Cn2nc(C)c3sc4ccccc4c3c2=O)cc1`, the “activity change, negative = cytotoxicity” value was inactive: -4.69%.

For `CCOC(=O)c1c(C)c(C(=O)NCCc2ccc(OC)cc2)c(C)n1CC`, the “activity change, negative = cytotoxicity” value was inactive: -0.0754%.

As to `CC(=O)c1c(C)n(-c2cccc(C)c2)c2ccc(OC(=O)COc3ccccc3)cc12`, the “activity change, negative = cytotoxicity” value is inactive: -14.1%.

For the compound `COc1cccc(-c2cc(C(=O)NCCc3ccc(C)cc3)[nH]n2)c1`, the “activity change, negative = cytotoxicity” value was inactive: 3.32%.

Take `COc1ccc(-c2c(C)c3ccc(O)c(CN4CCN(C)CC4)c3oc2=O)cc1OC`: the “activity change, negative = cytotoxicity” value was inactive: 4.21%.

As to `COc1ccc2c(c1)c1c(c(=O)n(-c3cccc(Cl)c3)c(=O)n1C)n2C`, the “activity change, negative = cytotoxicity” value was inactive: -6.3%.

On to `Cc1cccc2sc(N(Cc3cccnc3)C(=O)C3CCCCC3)nc12`, for which the “activity change, negative = cytotoxicity” value was inactive: -16.1%.

With `COc1ccc(S(=O)(=O)c2cn(CC(=O)Nc3ccccc3)c3ccc(Cl)cc3c2=O)cc1`, the “activity change, negative = cytotoxicity” value was inactive: 8.96%.

`Cc1ccc(NC(=O)Cn2c(=O)n(Cc3ccc4c(c3)OCO4)c(=O)c3ccc(C(=O)NC4CCCCC4)cc32)cc1`: the “activity change, negative = cytotoxicity” value was inactive: 0.615%.

For `CCOC(=O)c1ccc(NC(=O)Cc2coc3cc(C)cc(C)c23)cc1`, the “activity change, negative = cytotoxicity” value was inactive: -0.32%.

Turning to `O=C(Nc1cc(-c2nc3ccccc3o2)ccc1Cl)c1cccc2c(Cl)cccc12`, the “activity change, negative = cytotoxicity” value is inactive: 2.61%.

On to `Cc1cccc(NC(=O)CSc2nc(=O)n(CCN3CCOCC3)c3c2CCC3)c1C`, for which the “activity change, negative = cytotoxicity” value was inactive: 13.5%.

Regarding `CCCC(=O)NCc1nc2cccnc2n1Cc1ccc(F)cc1`, the “activity change, negative = cytotoxicity” value is inactive: 2.28%.

Consider `Cc1cccc(Cn2nnc3c(=O)[nH]c(C4CCN(C(=O)c5ccccc5F)CC4)nc32)c1`, for which the “activity change, negative = cytotoxicity” value was inactive: 13.4%.

Take `Cc1cc([N+](=O)[O-])ccc1NC(=O)CSc1nccn1C`: the “activity change, negative = cytotoxicity” value is inactive: 2.35%.

`COc1ccc(CNC(=O)c2cnc(N3CCCC3)nc2C)cc1`: the “activity change, negative = cytotoxicity” value was inactive: 5.91%.

As for `O=C(CSc1cn(CC(=O)N2CCOCC2)c2ccccc12)Nc1ccccc1C(F)(F)F`, the “activity change, negative = cytotoxicity” value was inactive: 2.79%.

As to `CCCCc1nn2c(=O)cc(COC(=O)c3ccccc3NC(=O)C3CCCCC3)nc2s1`, the “activity change, negative = cytotoxicity” value is inactive: -2.48%.

For `COc1ccc(S(=O)(=O)NCc2cccn2Cc2cccc(C)c2)cc1OC`, the “activity change, negative = cytotoxicity” value was inactive: -26.6%.

Turning to `CCN(C(=O)CSc1nnc(C)n2c1cc1occc12)c1ccccc1`, the “activity change, negative = cytotoxicity” value was inactive: -16.4%.

With `CCOc1ccc(NC(=O)c2cc3c(=O)n4cccc(C)c4nc3s2)cc1`, the “activity change, negative = cytotoxicity” value was inactive: 1.76%.

Consider `CCOC(=O)CC(NC(=O)c1cc2c(=O)n3cccc(C)c3nc2s1)c1ccc(OCC)c(OC)c1` (stereo unspecified), for which the “activity change, negative = cytotoxicity” value is inactive: 0.341%.

Consider `CC(C)OCCCNC(=O)Cc1ccc(NC(=O)N2CCCCc3ccccc32)cc1`, for which the “activity change, negative = cytotoxicity” value was inactive: -26.9%.

For the compound `CCc1ccccc1NC(=O)Cn1c(=O)n(-c2cccc(C)c2)c(=O)c2c1c1cc(OC)ccc1n2C`, the “activity change, negative = cytotoxicity” value was inactive: 1.89%.

In the case of `CCOc1ccccc1N(C)C(=O)c1cc2c(s1)-c1ccccc1OC2`, the “activity change, negative = cytotoxicity” value was inactive: 0.542%.

Consider `CCc1cccc(NC(=O)Nc2cn(C)c(=O)c3ccccc23)c1`, for which the “activity change, negative = cytotoxicity” value was inactive: 17.5%.

`Cc1ccc(C(=O)COC(=O)c2cc(-c3cccs3)nc3ccccc23)cc1`: the “activity change, negative = cytotoxicity” value was inactive: -2.58%.

On to `COc1cccc(NC(=O)C2CCN(S(=O)(=O)c3c(C)noc3C)CC2)c1`, for which the “activity change, negative = cytotoxicity” value is inactive: 5%.

In the case of `COc1ccc(-c2noc(CCC(=O)Nc3cccc(C)c3C)n2)cc1OC`, the “activity change, negative = cytotoxicity” value is inactive: 4.09%.

For `Cc1ccc(S(=O)(=O)c2cn(CC(=O)Nc3ccc(F)cc3)c3cc4c(cc3c2=O)OCO4)cc1`, the “activity change, negative = cytotoxicity” value is inactive: -1.51%.

On to `Cc1ccc(NC(=O)Cn2c(=O)n(CC(=O)NCCc3ccccc3)c(=O)c3ccccc32)cc1C`, for which the “activity change, negative = cytotoxicity” value is inactive: -12.3%.

With `CCCCc1nc(SCC(=O)Nc2ccc(S(N)(=O)=O)cc2)n[nH]1`, the “activity change, negative = cytotoxicity” value was inactive: 12%.

With `COc1ccc(C)cc1NC(=O)C(=O)NCC(c1cccnc1)N1CCN(c2ccccc2F)CC1` (stereo unspecified), the “activity change, negative = cytotoxicity” value was inactive: -16.7%.

For `O=C(Cn1c(=O)n(-c2ccc(Cl)cc2)c(=O)c2c3c(sc21)CCCCC3)Nc1cccc(Cl)c1`, the “activity change, negative = cytotoxicity” value is inactive: -0.108%.

In the case of `O=C(NCc1cccc(Cl)c1)c1cc2c(s1)-c1ccccc1SC2`, the “activity change, negative = cytotoxicity” value is inactive: -7.96%.

For the compound `Cc1ccc2cccc(NC(=O)c3cccc4c(Br)cccc34)c2n1`, the “activity change, negative = cytotoxicity” value was inactive: -0.276%.
